# Source: PubChem BioAssay AID463173 (ICCB-Longwood Screening Facility, Harvard Medical School, 2010)
# About 1,700 (3.3%) of roughly 52,000 compounds were called active. No stated cut-off is given here; in the data, active means survival mostly below about 52% (no sharp cut-off); inactive means mostly above about 56%. The list shows a part of the results.
# System: Wild type
# Assay: S. aureus survival, RN4220 and DeltatarO strains – OD600, teichoic acid synthesis inhibitors, primary screen (AID 463173)
# Conditions: S. aureus RN4220 wild type/DeltatarO growth, OD600, 18 h, stronger effect = lower value, screened at 18.75 µg/mL (by protocol)
row,SMILES,survival
1,COc1ccccc1CNc1nc(-c2ccco2)nn1S(C)(=O)=O,inactive: 86%
2,Cc1cccc(Cn2c(=O)n(CCCC(=O)NCc3ccccc3Cl)c(=O)c3ccccc32)c1,inactive: 125%
3,Cc1cc(-c2ccc(C)c(S(=O)(=O)Nc3ccccn3)c2)on1,inactive: 73%
4,COc1cc(OC)c(NS(=O)(=O)c2c(C(=O)N3CCCCCC3)c(C)n(C)c2C)cc1Cl,inactive: 54%
5,COc1ccc(-n2cc(-c3ccccc3)nc2SCC(=O)Nc2ccccc2C)cc1,inactive: 70%
6,CCOC(=O)N1CCc2c(sc(NCc3cccc(F)c3)c2C(=O)Nc2ccc(OC)cc2)C1,inactive: 126%
7,Cc1ccc(CNc2nc3ccc(Cl)cc3n3nnnc23)cc1,inactive: 93%
8,COC(=O)CC1Oc2ccc(F)cc2-n2cc(-c3ccc(C)cc3)nc21 (stereo not given),inactive: 105%
9,COc1cc(NC(=O)CCn2c(=O)oc3ccccc32)cc(OC)c1OC,inactive: 89%
10,CSc1ccc(NC(=O)C2CCN(c3ncccn3)CC2)cc1,inactive: 124%
11,CCN1CCN(c2ncc3c(n2)CCN(CC(C)C)C3)CC1,inactive: 82%
12,COc1ccc(N(Cc2cccs2)C(=O)COc2cccc(C)c2C)cc1,active: 12%
13,Cc1cccc(CC(=O)N2CC(=O)Nc3ccc(C)cc3C2c2ccc(F)cc2)c1 (stereo not given),inactive: 83%
14,CCOc1ccc(-n2ccnc2SCC(=O)Nc2cccc3ccccc23)cc1,inactive: 86%
15,O=C(CSc1nnc(Cn2nnc3ccccc32)o1)N(Cc1ccc(Cl)cc1)c1ccccc1,inactive: 141%
16,N=c1c(S(=O)(=O)c2ccccc2)cc2c(=O)n3ccccc3nc2n1Cc1cccnc1,inactive: 107%
17,COc1ccc(Br)cc1CNC(=O)c1ccc2nc(C(C)C)oc2c1,inactive: 75%
18,CCOc1ccccc1CNC(=O)CCC(=O)N1CCSc2ccccc21,inactive: 102%
19,Clc1nc2ccccc2c(N2CCCCC2)c1CNC1CC1,inactive: 100%
20,COc1ccccc1Cc1nc2ccccc2nc1SCC(=O)Nc1ccc2c(c1)OCO2,inactive: 45%
21,COc1ccccc1CNC(=O)CCCCn1c(=O)c2ccccc2n(CC(=O)Nc2c(C)cc(C)cc2C)c1=O,inactive: 102%
22,O=[N+]([O-])c1cc(-c2nc(-c3ccccc3)no2)ccc1NCc1cccnc1,inactive: 76%
23,Cc1ccc(NC(=O)CN2C(=O)C(c3ccc(C(C)(C)C)cc3)=NC2(C)C)cc1,inactive: 74%

row,SMILES,survival
1,CCCN(CCC)C(=O)CSc1c2c(nc3ccc(Cl)cc13)CCCC2,inactive: 52%
2,Nc1nnc(CCc2ccccc2)s1,inactive: 110%
3,COc1ccc(N2CCN(C(=O)COc3ccccc3C#N)CC2)cc1,inactive: 86%
4,Cc1cc(C)cc(-n2c(SCC(=O)Nc3cccc(F)c3)nc3c([nH]c4ccccc43)c2=O)c1,inactive: 76%
5,Cc1ccc(S(=O)(=O)CCc2nnc(NC(=O)CCCC(=O)Nc3cc(C)on3)s2)cc1,inactive: 105%
6,Brc1ccc(Nc2c3c(nc4nncn24)CCC3)cc1,inactive: 80%
7,Cc1ccc(C(=O)Nc2ccc(-c3nc4ccccc4o3)cc2)cc1Cl,inactive: 91%
8,C=CCn1c(SCC(=O)Nc2cc(OC)c(NC(=O)c3ccco3)cc2OC)nnc1-c1ccncc1,inactive: 98%
9,Cc1ccc(C)c(NC(=O)C(Cc2ccccc2)n2cccc2)c1 (stereo not given),inactive: 134%
10,CCOC(=O)C1=C(N)Oc2cc(C)oc(=O)c2C1c1ccccc1F (stereo not given),inactive: 104%
11,COc1ccc(OC)c(NC(=O)Cn2c(=O)n(Cc3ccco3)c(=O)c3cc(OC)c(OC)cc32)c1,inactive: 65%
12,Cc1ccc(NC(=O)C2CCC(CNS(=O)(=O)c3ccc4c(c3)CCCC(=O)N4)CC2)cc1F (stereo not given),inactive: 72%
13,COCCNc1nc2c(c(=O)n(Cc3cccc(Cl)c3)c(=O)n2C)n1C,inactive: 71%
14,COc1ccc(OCC(=O)Nc2c(C(=O)N3CCN(c4ccccc4)CC3)oc3ccccc23)cc1,inactive: 91%
15,CCc1ccc(NC(=O)C2=C(C)C(=O)OC23CCCCC3)cc1,inactive: 92%
16,COc1ccc2c(c1)c1c(c(=O)n(Cc3ccccc3)c(=O)n1Cc1ccccc1Cl)n2C,inactive: 84%
17,O=C(O)c1cccc(NC(=O)c2cc3cc(Br)cc(Br)c3oc2=O)c1,inactive: 79%
18,COc1ccc(-c2[nH]nc3oc(=O)cc(C)c23)cc1,inactive: 111%
19,Cc1cccc(C)c1NC(=O)C(c1ccccc1)N(Cc1ccco1)C(=O)Cn1nnc2ccccc21 (stereo not given),inactive: 116%
20,CCOC(=O)c1c(-c2ccc(OC)c(OC)c2)csc1NC(=O)c1ccc(C)cc1,inactive: 77%
21,CCCCN1CCCc2cc(CN(CCCN3CCOCC3)C(=O)Nc3ccc(CC)cc3)ccc21,inactive: 73%
22,CCOC(=O)c1cc(-c2ccccc2)n(CCC(=O)NCCc2cccc(C)c2)c1C,inactive: 49%
23,COc1ccc(S(=O)(=O)NCCc2sc3nc(-c4ccc(C)cc4)nn3c2C)cc1C,inactive: 82%

row,SMILES,survival
1,CCCCNc1oc(-c2ccc(COc3ccccc3C)o2)nc1C#N,inactive: 125%
2,COc1ccc(S(=O)(=O)N(CC(=O)NCCSc2ccccc2)c2ccc(C)cc2)cc1,inactive: 67%
3,Cc1cc(=O)[nH]c(SCC(=O)NC2CCCCC2)n1,inactive: 113%
4,CC(=O)c1cccc(NC(=O)Cc2ccc(NC(=O)N3CCCCc4ccccc43)cc2)c1,inactive: 60%
5,CCC(=O)N1CCc2cc(S(=O)(=O)CCC(=O)N3CCN(c4ccccc4F)CC3)ccc21,inactive: 87%
6,Cc1ccc(CNC(=O)c2cc3sccc3n2Cc2ccc(F)cc2)cc1,inactive: 98%
7,Cc1cc2oc(C(=O)Nc3nc(-c4ccccc4)ns3)c(C)c2cc1Cl,inactive: 71%
8,Cc1ccc(NC(=O)CN2C(=O)CCc3cc(S(=O)(=O)N4CCOCC4)ccc32)c(C)c1,inactive: 71%
9,CCOc1ccc(CNC(=O)c2sc3nc(C)cc(C)c3c2-n2cccc2)cc1,inactive: 95%
10,CN1CCN(C(CNC(=O)C(=O)Nc2ccc(F)cc2)c2cccnc2)CC1 (stereo not given),inactive: 96%
11,Cc1ccc(C)c(Cn2nnc(C(=O)NCc3ccccc3)c2N)c1,inactive: 83%
12,CC(=O)c1ccc(NS(=O)(=O)c2ccc3[nH]c4c(c3c2)CCCCCC4)cc1,inactive: 82%
13,CCC(CC)C(=O)N1CCc2cc(OC)c(OC)cc2C1COc1ccccc1OC (stereo not given),inactive: 66%
14,Cc1nc2cc(-c3cccc(F)c3)nn2c(C)c1CCC(=O)NC1CCCCC1,inactive: 94%
15,CCC1CCCCN1C(=O)CSc1nnc2c3ccccc3n(CC(=O)O)c2n1 (stereo not given),inactive: 126%
16,CCOc1ccc(NC(=O)CSc2nnc(NC(=O)Nc3ccccc3)s2)cc1,inactive: 71%
17,Cn1c(NN)nc2c(c1=O)C1(CCCC1)Cc1ccccc1-2,inactive: 104%
18,CCOc1ccc(-c2nonc2NC(=O)COc2ccc(C)c(C)c2)cc1OCC,inactive: 117%
19,COc1ccc(-c2nn(C)c3sc(C(=O)N4CCN(c5cc(Cl)ccc5C)CC4)cc23)cc1OC,inactive: 83%
20,O=C(c1ccc2c(c1)N(Cc1cccc(Cl)c1)C(=O)c1ccccc1S2(=O)=O)N1CCN(c2cccc(C(F)(F)F)c2)CC1,inactive: 73%
21,COc1ccc(C(=O)CCC(=O)Nc2cccc(C(C)=O)c2)cc1,inactive: 72%
22,COc1ccc(CCNC(=O)Cn2c(=O)c3cccn3c3ccc(F)cc32)cc1OC,inactive: 89%
23,CCOc1ccc(-c2cnc(NCc3cccc(Cl)c3)n2C)cc1,inactive: 52%

row,SMILES,survival
1,Cc1ccc(Cn2c(=O)n(Cc3ccc(Cl)cc3)c(=O)c3cccnc32)cc1,inactive: 86%
2,COc1cccc(NC(=O)C(=O)NCC(c2cccnc2)N2CCN(c3ccccc3)CC2)c1 (stereo not given),inactive: 107%
3,Cc1ccccc1-n1nc(CO)c(C(=O)NCCc2ccccc2)n1,inactive: 84%
4,CC1CCc2c(sc(NC(=O)c3ccccc3)c2C(=O)Nc2ccccc2)C1 (stereo not given),inactive: 64%
5,CCc1cc2c(=O)n(-c3ccccc3)c(SCC(=O)c3cccs3)nc2s1,inactive: 99%
6,Cc1cccc(CSc2cn(CC(=O)N3CCCCCC3)c3ccccc23)c1,inactive: 90%
7,COc1ccc(OC)c(CNc2ncnc3onc(-c4ccc(Cl)cc4)c23)c1,inactive: 69%
8,CCOC(=O)CSc1nc2ccc(NC(=O)COc3ccccc3)cc2s1,inactive: 98%
9,CCOC(=O)C(C)Sc1nnc(-c2ccc(F)cc2)o1 (stereo not given),inactive: 110%
10,N#CC1=C(S)NC(=O)C(C#N)C12CCCCC2 (stereo not given),inactive: 127%
11,CCCCN(C)CCNC(=O)C1CCN(c2nc3ccc(CC)cc3s2)CC1,inactive: 56%
12,O=C(NCc1ccc(Cl)cc1)c1cnc2sc(N3CCCCCC3)nn2c1=O,inactive: 68%
13,CCCOc1ccc(-c2cccc(NS(=O)(=O)c3cc(OC)ccc3OC)c2)nn1,inactive: 78%
14,O=C(CCC(=O)N1Cc2ccccc2Oc2ncccc21)NCc1ccccc1Cl,inactive: 88%
15,Cc1cc(C)n(CCCC(=O)NCCn2nccc2C)n1,inactive: 119%
16,COc1ccc(Cl)cc1NC(=O)C1CCN(c2ncnc3c2nc2n3CCCCC2)CC1,inactive: 82%
17,CCN(CC)c1ccc(NC(=O)c2cnn3c(C(F)F)cc(-c4ccccc4)nc23)cc1,inactive: 59%
18,COc1ccc(C(c2c(O)cc(C)n(Cc3ccco3)c2=O)N2CCN(c3ccccc3)CC2)cc1 (stereo not given),inactive: 78%
19,COc1ccc(OC)c(NC(=O)C2CCN(S(=O)(=O)c3ccc(C)cc3)CC2)c1,inactive: 76%
20,COc1cccc(N2C(=O)C(CC(=O)Nc3cccc(F)c3)N(C(C)C)C2=O)c1 (stereo not given),inactive: 78%
21,Cc1cccc(CC(=O)NC2CC(=O)N(c3cccc(F)c3)C2)c1 (stereo not given),inactive: 60%
